By IC50 is meant the dose at which the fit gives 50% viability; fits outside the tested doses are given as limits. For AUC the same curve is integrated over the 256-fold range of doses and scaled to a fraction; the more sensitive the line, the further below 1. For some assays here: An inferred top dose comes from the curve model; the source does not state it.
Assays:
Assay in all cases: Viability of human cancer cell lines after 72 h of drug (GDSC screen)
[1] = compound: CC[C@H](Nc1ncnc2[nH]cnc12)c1nc2cccc(F)c2c(=O)n1-c1ccccc1 [CAL-101]
Procedure: (§1)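 Human cancer cell lines in 384-well plates, medium with 10% serum, drug for 72 h over a 256-fold dose range (nine 2-fold or five 4-fold steps up to the top dose). Adherent lines were fixed and stained with the nucleic acid dye Syto60, suspension lines read with resazurin; signal relative to control wells, capped at 0 and 100%. One two-parameter sigmoid per drug and line, fitted in a mixed model over all curves with the slope shared within a line.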

[2] = compound: CCc1cncnc1N1CCN(Cc2nc3ccc(C(F)(F)F)cc3[nH]2)CC1 [PF-4708671]; settings: top dose 10 µM; top dose inferred
Procedure: as §1

[3] = compound: COc1cc2nccc(Oc3ccc(NC(=O)Nc4cc(C)on4)c(Cl)c3)c2cc1OC [AV-951]; settings: top dose 0.128 µM; top dose inferred
Procedure: as §1

[4] = compound: O=C(NC(COc1ccc2[nH]c(=O)[nH]c2c1)c1ccccc1)c1cccn(Cc2ccc(F)c(F)c2)c1=O [KIN001-244]; settings: top dose 20 µM; top dose inferred
Procedure: as §1

Q: Which AUC [1] does the source give for “8-MG-BA (glioma, adherent, top dose 20 µM)” here?
A: The AUC was 0.953.

Q: What about the IC50 [1] of the same cell line?
A: Its IC50 is greater than 20 µM.

Q: Which results are given for “22RV1 (prostate, adherent, top dose 20 µM)”?
A: AUC [1]: 0.935; IC50 [1]: > 20 µM

Q: For “42-MG-BA (glioma, adherent, top dose 20 µM)”, which AUC [1] is on record?
A: The AUC was 0.967.

Q: What about the IC50 [1] of the same cell line?
A: Its IC50 is greater than 20 µM.

Q: “201T (lung adenocarcinoma, adherent, top dose 20 µM)” was tested. Which AUC [1] did it give?
A: The AUC was 0.961.

Q: What about the IC50 [1] of the same cell line?
A: Its IC50 is greater than 20 µM.

Q: What does the source list for “451Lu (melanoma, adherent, top dose 20 µM)”?
A: AUC [1]: 0.987; IC50 [1]: > 20 µM

Q: With “639-V (bladder, adherent, top dose 20 µM)” as the cell line, how does the AUC [1] read?
A: Its AUC is 0.987.

Q: And the IC50 [1]?
A: Its IC50 is greater than 20 µM.

Q: What does the source list for “647-V (bladder, adherent, top dose 20 µM)”?
A: AUC [1]: 0.948; IC50 [1]: > 20 µM

Q: Which AUC [1] does the source give for “697 (lymphoblastic leukaemia, suspension, top dose 20 µM)” here?
A: Its AUC is 0.825.

Q: And the IC50 [1]?
A: The IC50 was 8.94 µM.

Q: Which AUC [1] does the source give for “769-P (kidney, adherent, top dose 20 µM)” here?
A: The AUC was 0.945.

Q: And the IC50 [1]?
A: The IC50 was greater than 20 µM.

Q: How did the AUC [1] turn out when “5637 (bladder, adherent, top dose 20 µM)” was run?
A: Its AUC is 0.966.

Q: What about the IC50 [1] of the same cell line?
A: The IC50 was greater than 20 µM.

Q: For “8305C (thyroid, adherent, top dose 20 µM)”, which AUC [1] is on record?
A: The AUC was 0.936.

Q: What about the IC50 [1] of the same cell line?
A: The IC50 was greater than 20 µM.

Q: Which AUC [1] does the source give for “8505C (thyroid, adherent, top dose 20 µM)” here?
A: The AUC was 0.97.

Q: What about the IC50 [1] of the same cell line?
A: The IC50 was greater than 20 µM.

Q: What does the source list for “23132-87 (stomach, adherent, top dose 20 µM)”?
A: AUC [1]: 0.958; IC50 [1]: > 20 µM

Q: “A3-KAW (B-cell lymphoma, suspension, top dose 20 µM)” was tested. Which AUC [1] did it give?
A: The AUC was 0.872.

Q: What about the IC50 [1] of the same cell line?
A: The IC50 was 12.8 µM.

Q: “A4-Fuk (B-cell lymphoma, suspension, top dose 20 µM)” was tested. Which AUC [1] did it give?
A: The AUC was 0.935.

Q: What about the IC50 [1] of the same cell line?
A: The IC50 was greater than 20 µM.

Q: Which results are given for “A101D (melanoma, adherent, top dose 20 µM)”?
A: AUC [1]: 0.98; IC50 [1]: > 20 µM

Q: A172 (glioma, adherent, top dose 20 µM) was tested. Which AUC [1] did it give?
A: Its AUC is 0.983.

Q: And the IC50 [1]?
A: The IC50 was greater than 20 µM.

Q: For “A204 (rhabdomyosarcoma, adherent, top dose 20 µM)”, which AUC [1] is on record?
A: The AUC was 0.872.

Q: What about the IC50 [1] of the same cell line?
A: Its IC50 is greater than 20 µM.

Q: For “A253 (head and neck, adherent, top dose 20 µM)”, which AUC [1] is on record?
A: The AUC was 0.982.

Q: And the IC50 [1]?
A: Its IC50 is greater than 20 µM.

Q: For A388 (skin, adherent, top dose 20 µM), which AUC [1] is on record?
A: Its AUC is 0.965.

Q: What about the IC50 [1] of the same cell line?
A: Its IC50 is greater than 20 µM.

Q: Which results are given for “A427 (non-small cell lung carcinoma, adherent, top dose 20 µM)”?
A: AUC [1]: 0.979; IC50 [1]: > 20 µM

Q: What does the source list for A431 (skin, adherent, top dose 20 µM)?
A: AUC [1]: 0.974; IC50 [1]: > 20 µM

Q: How did the AUC [1] turn out when A498 (kidney, adherent, top dose 20 µM) was run?
A: Its AUC is 0.962.

Q: What about the IC50 [1] of the same cell line?
A: Its IC50 is greater than 20 µM.

Q: How did the AUC [2] turn out when A549 (lung adenocarcinoma, adherent) was run?
A: The AUC was 0.92.

Q: And the IC50 [2]?
A: Its IC50 is greater than 10 µM.

Q: How did the AUC [1] turn out when “A673 (rhabdomyosarcoma, adherent, top dose 20 µM)” was run?
A: Its AUC is 0.974.

Q: And the IC50 [1]?
A: Its IC50 is greater than 20 µM.

Q: What does the source list for A704 (kidney, adherent, top dose 20 µM)?
A: AUC [1]: 0.979; IC50 [1]: > 20 µM

Q: How did the AUC [1] turn out when “A2058 (melanoma, adherent, top dose 20 µM)” was run?
A: The AUC was 0.971.

Q: What about the IC50 [1] of the same cell line?
A: Its IC50 is greater than 20 µM.

Q: For “A2780 (ovary, semi-adherent, top dose 20 µM)”, which AUC [1] is on record?
A: The AUC was 0.858.

Q: And the IC50 [1]?
A: Its IC50 is 17.3 µM.

Q: For “ABC-1 (lung adenocarcinoma, adherent, top dose 20 µM)”, which AUC [1] is on record?
A: Its AUC is 0.928.

Q: And the IC50 [1]?
A: Its IC50 is greater than 20 µM.

Q: For ACHN (kidney, adherent, top dose 20 µM), which AUC [1] is on record?
A: Its AUC is 0.934.

Q: What about the IC50 [1] of the same cell line?
A: Its IC50 is greater than 20 µM.

Q: AGS (stomach, adherent, top dose 20 µM) was tested. Which AUC [1] did it give?
A: The AUC was 0.973.

Q: What about the IC50 [1] of the same cell line?
A: Its IC50 is greater than 20 µM.

Q: Which AUC [3] does the source give for “COR-L311 (small cell lung carcinoma, suspension)” here?
A: The AUC was 0.981.

Q: And the IC50 [3]?
A: Its IC50 is greater than 0.128 µM.

Q: What about the AUC [4] of the same cell line?
A: Its AUC is 0.883.

Q: What about the IC50 [4] of the same cell line?
A: Its IC50 is greater than 20 µM.

Q: With “K-562 (chronic myeloid leukaemia, suspension)” as the cell line, how does the AUC [4] read?
A: Its AUC is 0.85.

Q: What about the IC50 [4] of the same cell line?
A: The IC50 was 14.5 µM.

Q: MM1S (myeloma, suspension) was tested. Which AUC [2] did it give?
A: The AUC was 0.883.

Q: What about the IC50 [2] of the same cell line?
A: Its IC50 is 9.77 µM.

Q: How did the AUC [2] turn out when “NCI-H1650 (lung adenocarcinoma, adherent)” was run?
A: The AUC was 0.958.

Q: What about the IC50 [2] of the same cell line?
A: Its IC50 is greater than 10 µM.

Q: For OCI-LY7 (B-cell lymphoma, suspension), which AUC [2] is on record?
A: Its AUC is 0.962.

Q: What about the IC50 [2] of the same cell line?
A: Its IC50 is greater than 10 µM.
